From the supplement of paper PMC12632987
In all, about 2,300 sequences were measured (“median log2 fold change of GCK-ALFA target abundance (FLAG IP / Myc IP barcode read proportion)”: median about 0.095, lowest 2% from about -0.47 on). This is one part of the list.

B1: LC3A_28_796 (protein)
chain: SAVDAELARARAEAEAALARGEEALLTVRVGGDTTEEDARRIVEGLEEIVERAASLPRLSILIDLDGDVSQEVIDILAEGGERLEERYPNVNVILALDEE
B2: LC3A_free_46_2367 (protein)
chain: PRAEIDIDFLVETKELAEELAKELEAAIRAIAEKHGVRVEIEVEIIENPDGTYSLRIRIRLEAEDKETLLAAVTAIIDEIDKIAEKFNVSYIISVEVIDE
B3: LC3A_28_700 (protein)
chain: SELEENLKKAEKEAEEAVEKGEDAYIEVKLSGTATKEDIEKVLKRIEEIAEKVTKVGKLYVVVDVDGKLPQENLTLLADGLDEIEEKYPKVSAVIALDED
B4: LC3A_147_441 (protein)
chain: VTITIDILVKTEEAKEKVIEKIKEIVEELKKKGFKVELKIEVEKIDENTYYIKVTIKVEAETEEKAEEAKNLVLDKIDEMEEELKDYILGSIISVEIEKK
B5: LC3A_147_504 (protein)
chain: VKLEVYIDIITKNATEEVKEFVKEIEKELKEKGFEVKVKIKIEKLDEDTDYIEIEIEIKAETEEKAKEAANYIIDKFEEFEEKNKDKILGSLISVEIEKE
B6: LC3A_3_1762 (protein)
chain: MEAFIEAAAKELKEAGASEELIEKASRALRLLLERGLEETAKEFVKVLLELLKKSEELALDLAEDVLTLLETSTLSPEELAKAVRSEMNAALSEAEIEEL
B7: LC3A_free_2_2173 (protein)
chain: MKYELTVDALGKAEDAARLVKAIVDEGVDVEVKLEDGTVLKATAETVDEVVAYLLSLDREVFLELTAVTDKEKAEKTEKALDEVADETGISMLISIEELE
B8: LC3A_free_0_2100 (protein)
chain: MVTKVEVLGIIPDKSAKEAAEAIKEKLEEYGKKLSEEKGWKVTVELTEVDGSYVITVTIEGEGMSIEEGLEIADEIADLIEELAKEHGVEVTIYESVYEE
B9: LC3A_28_1257 (protein)
chain: SPLDENLKKAIEEVKEAVEKGEEAVVTITVPAGITEEEIEKVIKTMEEIAELGKSLKRLTIIIDVEAGVKQEHIDKLADKGEELEKKYPNLTVIIALEEE
B10: LC3A_28_1129 (protein)
chain: MTAEEVIKRAEEEAEKAIKAKEDAYIEVTIPESFTKEDVERIAERLKELAKKIAEVSKVNIVVTFESEKVLPHADIFADTFEELEKEYPNVNVILALPET
B11: LC3A_free_0_2116 (protein)
chain: KKTVVEVLVILDESTTEEEAKKAYEELKKKAEEIAKKYGWEVKVELSKSDGSWIITVTLTSDSTDIDKALEIARELSDAAEEIAKELGLDATIYESVYLE
B12: LC3A_3_1674 (protein)
chain: MEEVIGRLLEAERARGASEEDLAALREALERLLEVSSERVVETLVRLLLEIEDVPVADKIALVRDIVYEIEKNNLSEEEQIALVEREVTALRNGTEIEEL
B13: LC3A_3_1884 (protein)
chain: MEEEIKATLEELKAAGASEETLAAFLRVVELLKERGYEEALKTLIEEVRKLIGLPDELLLAFLEEVLETLETEDLDEEELIERIKEIARLTRNEAEIEEL
B14: LC3A_28_1156 (protein)
chain: SHIDEEIERARAELEAAIAAGEDAVITIKVTGEATQEDIEKLIKALEELAELGEKHGITSIIIDVDEKVKQEHIDKLADAAEEIEAKYPNITIIIALSDE
B15: LC3A_28_705 (protein)
chain: MELEKNIEEALKRAKEAAEKGEEEVIEIKVPSTATEEDIEKVIEALKEIAEIVKDLKRTSIIIDVEGGVKQEYIDKLIDAGEEIEKKYPNVTVIFALDEE
B16: LC3A_3_1662 (protein)
chain: AEELIEETLAWLREQGRSEETLEAAREAMTALKEKGYYEALETFAELLRELADLSDELLLELAEEVLELVETSDLDEESMTEEIREIARTIRSEAEIEEL
B17: LC3A_3_1473 (protein)
chain: LDEKLEATLAKLKAAGASEEVLEAVRKAYEKLKELGFEEAAKTFIEEMDKLVGLPSELLLWFAEEVLRAVEKYKNDEEKLIEEIKKIAAATRAEAEIIEL
B18: LC3A_3_1831 (protein)
chain: MEEELEETIKLLKEAGHSEETIEKLKETVEKLLERGYEEAAKTLLELVKKAIHLPSELLLEALEEILEYIEENDDSEEEVTEKIKEIFNLYENEYEIEEL
B19: LC3A_3_1798 (protein)
chain: MEEKREKLLKLLKEAGKSEEVIEAARETLEALIEKGYEEAYKTLVEELEKLKDIPDEILLEMLEEVLRLVKEEDLSEEELTERIKELARLARLESEIEEL
B20: LC3A_free_8_2546 (protein)
chain: DVQAFADALSKLLDELEEEIEKKAKELGLDRLDILDLSLLVGETIAEALDASEEGQEAALEAAKKGLEEVIEYAKSLSPELAKFVKEKSEEVLKKAEELL
B21: LC3A_3_1725 (protein)
chain: MEEIKKEILEELEKQGKSKETIEAAKKLLDALEKKGFLEAAKTLLEEIKKAKNVSSETLLAALEDLLYIVENEDLDEEEVIEEIKREFRVALEEEEIEEL
B22: LC3A_28_964 (protein)
chain: SELEEQLKKVLEEAKEAAAKGEAKVFTITVPGTADEEDIEKVIKTIREIAELLKDVKGSAIIVSVEAGVKQEHIDKLVDTLEEIEKKYPNITAILALDED
B23: LC3A_28_1055 (protein)
chain: SAVEEQIKKALEEAKELAAKGEEALIEIEIEEDDTEEDVEKKLKTIEEIAEINKDLPSTSIIVNVNNKNKEEVTKKFADLGDELEKKYPNVTVIIALSEE
B24: LC3A_28_1013 (protein)
chain: MSIVEETKKKIEEALKEAEKGEDAYLEVEITSEATQEEVEEVLELIEKAAKEVSKLPNVKLYVVIYDDSNQENHQLIVDAADRIEEKYPNVHVIVAYDDE
B25: LC3A_28_979 (protein)
chain: SALEKELAAKIAEAKKAAAAGEPAVITIKVSGDTNEEQLAKIIETLEEIAEILKDVKGSAIIIDIDRGVDPKHKQKLIDKGEEIEKKYPNVTVIFALEEE
B26: LC3A_28_1040 (protein)
chain: SALEAAAAAALAEAEEQLAAGDEAVVTLTVTDTPTDEAAATVAAFLAAARELSARYGGKKIYVVIDYDGDQDTLDALADIADEAEAADPNLTVIIAYDDK
B27: LC3A_28_1160 (protein)
chain: SKIEESIAKARAEAEAAIAAGEPAVIELTVTPDATEEDVERVIKALEELAALGEKHGLLDILVNVEEGVKQEHINRIADAAEEIEKKYPKVTIIIALSEE
B28: LC3A_28_672 (protein)
chain: SALDEQLEAALKQAKELAAKGEAGVIVIKVPGDATEEEIERLIEALEEIAEILKDVKGAAIIIELDKDLKEEHRDRIIDAAEEINEKYPNVTVIIAEEER
B29: LC3A_3_1507 (protein)
chain: KEELIEELRKILEEMGASEEVIEKFEEALKKLLERGYEKAAEKLLELVKEMKDLSNELLLEFAEEVLELLEKGDLSEEELIEEIEKIAKITKSAGEIEEL

Each binder was assayed against MAP1LC3A, Q9H492 (assay: median log2 fold change of GCK-ALFA target abundance (FLAG IP / Myc IP barcode read proportion) (log2 ratio); each designed protein is fused to an ALFA-tag nanobody in HEK293 cells to bring the named protein to FLAG-tagged glucokinase (GCK); Myc marks an untargeted standard; higher = target protein stabilised (more abundant)). Conditions: target protein: 3xFLAG-MCP-GCK-ALFA reporter; HEK293 landing pad (RPLP).
In short: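 HEK293 landing-pad cells received a recombined binder library fused to the ALFA nanobody and were induced with 2 μg mL^−1 doxycycline, then transfected with a plasmid encoding a FLAG-tagged target and a Myc-tagged standard. Lysates were collected after 48 h for anti-FLAG and anti-Myc immunoprecipitation, and the circular RNA barcodes were reverse transcribed, amplified and sequenced. Target abundance for each binder is the median log2 ratio of FLAG to Myc barcode read proportions. Barcodes had to reach a proportion of at least 10^−7 in both replicates, each binder needed at least 3 barcodes per replicate, a pseudocount of 10^−6 was applied, and the two replicates were pooled.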

| Binder | median log2 fold change |
| --- | --- |
| B1 | -0.158 |
| B2 | 0.0567 |
| B3 | -0.445 |
| B4 | 0.0521 |
| B5 | -0.32 |
| B6 | 0.226 |
| B7 | -0.0273 |
| B8 | -0.121 |
| B9 | 0.24 |
| B10 | -0.0822 |
| B11 | -0.122 |
| B12 | 0.256 |
| B13 | 0.158 |
| B14 | 0.0134 |
| B15 | -0.0511 |
| B16 | -0.0559 |
| B17 | 0.18 |
| B18 | 0.0528 |
| B19 | 0.306 |
| B20 | 0.166 |
| B21 | 0.252 |
| B22 | 0.203 |
| B23 | 0.0494 |
| B24 | -0.261 |
| B25 | -0.00812 |
| B26 | -0.0392 |
| B27 | 0.114 |
| B28 | 0.24 |
| B29 | 0.223 |
